The chains are these.
B1: STK11_Y166_G171S (peptide)
chain: IDGLEYLHSQS
B2: STXBP1_Y411_R406C (peptide)
chain: CIILLYIFLKN
B3: STAT1_Y668 (peptide)
chain: PLKYLYPNIDK
B4: STAT1_Y203_M202I (peptide)
chain: LLKKIYLMLDN
B5: STX5_Y137 (peptide)
chain: IEELTYIIKQD
B6: STAMBP_Y36 (peptide)
chain: IPPRRYFRSGV
B7: STX2_Y49 (peptide)
chain: DKITQYVEEVK
B8: STK36_Y1181 (peptide)
chain: VGNAAYQAGPL
B9: STOX1_Y858_A863T (peptide)
chain: RIFDYYSARKT
B10: STAT1_Y170_D165G (peptide)
chain: GLQDEYDFKCK
B11: STRN3_Y474_N471S (peptide)
chain: TWSPKYTLRSH
B12: SRPK2_Y427 (peptide)
chain: ESDYTYSSSYE
B13: STK36_Y1181_P1185S (peptide)
chain: VGNAAYQAGSL
B14: STAM_Y371_E366K (peptide)
chain: KALSLYTKLMN
B15: STAM_Y371 (peptide)
chain: EALSLYTKLMN
B16: SSX7_Y48_YF (peptide)
chain: LEKISYVFMKR
B17: STAT1_Y701 (peptide)
chain: PKGTGYIKTEL
B18: ST3GAL5_Y99 (peptide)
chain: MKKMHYVDPDH
B19: SRRT_Y798_Q793K (peptide)
chain: KGLMPYGQPRP

Some of the results follow. Rule as the data show it: active = 3.2 or more and inactive = the rest. Most of these values are background signal.
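Also: displayed peptides selected on beads carrying the immobilized SH2 domain, with library peptides lacking any tyrosine serving as negative controls.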

The target in the first assay is SHP2 C-SH2 domain E139D. The assay can be described thus: enrichment score (SH2-bound / input frequency) (ratio); bacterial display of known human phosphotyrosine sites (pTyr-Var adds point mutants) read by sequencing; higher = stronger binding; tyrosines were phosphorylated by kinases first. The conditions noted are these: peptide library: pTyr-Var.
Consider B1, for which the enrichment score is inactive: 0.831.

Take B2: the enrichment score was inactive: 1.99.

In the case of B3, the enrichment score was inactive: 0.891.

Take B4: the enrichment score was inactive: 1.69.

For B5, the enrichment score was inactive: 0.689.

Turning to B6, the enrichment score is inactive: 0.221.

In the case of B7, the enrichment score was inactive: 0.873.

B8: the enrichment score was inactive: 0.684.

Turning to B9, the enrichment score is inactive: 0.891.

With B10, the enrichment score is inactive: 0.932.

With B11, the enrichment score was inactive: 1.67.

As for B12, the enrichment score is inactive: 0.506.

Consider B13, for which the enrichment score is inactive: 0.992.

Consider B14, for which the enrichment score was inactive: 1.14.

B15: the enrichment score is inactive: 0.899.

Consider B16, for which the enrichment score was inactive: 1.2.

Regarding B17, the enrichment score is inactive: 1.27.

Consider B18, for which the enrichment score is inactive: 0.578.

Consider B19, for which the enrichment score is inactive: 0.995.

The target of a further assay is SHP2 C-SH2 domain wild-type. The description is as above. Particulars: peptide library: pTyr-Var.
As to B1, the enrichment score is inactive: 0.738.

With B2, the enrichment score was inactive: 1.71.

Turning to B3, the enrichment score is inactive: 0.863.

For the molecule B4, the enrichment score was inactive: 1.57.

As to B5, the enrichment score was inactive: 0.733.

Turning to B6, the enrichment score was inactive: 0.285.

B7: the enrichment score was inactive: 0.955.

In the case of B8, the enrichment score was inactive: 0.571.

In the case of B9, the enrichment score is inactive: 0.57.

As for B10, the enrichment score was inactive: 0.621.

Take B11: the enrichment score is inactive: 1.29.

B12: the enrichment score is inactive: 0.451.

Consider B13, for which the enrichment score is inactive: 1.

As for B14, the enrichment score is inactive: 2.22.

Take B15: the enrichment score is inactive: 1.58.

On to B16, for which the enrichment score is inactive: 1.3.

Consider B17, for which the enrichment score is inactive: 0.67.

In the case of B18, the enrichment score is inactive: 0.653.

Consider B19, for which the enrichment score was inactive: 0.625.

In the next assay the target is SHP2 N-SH2 domain L43F. The assay is described as above. Particulars: peptide library: pTyr-Var.
As for B1, the enrichment score is inactive: 0.938.

Regarding B2, the enrichment score is inactive: 1.16.

With B3, the enrichment score is inactive: 2.03.

Regarding B4, the enrichment score was inactive: 1.59.

As for B5, the enrichment score is inactive: 0.862.

On to B6, for which the enrichment score was inactive: 0.336.

Regarding B7, the enrichment score was inactive: 0.923.

Consider B8, for which the enrichment score was inactive: 0.664.

B9: the enrichment score was inactive: 0.825.

For the molecule B10, the enrichment score was inactive: 0.641.

For the molecule B11, the enrichment score is inactive: 1.12.

For the molecule B12, the enrichment score was inactive: 0.4.

Regarding B13, the enrichment score was inactive: 0.539.

As to B14, the enrichment score was inactive: 0.918.

For B15, the enrichment score was inactive: 0.831.

As to B16, the enrichment score is inactive: 0.98.

Take B17: the enrichment score was inactive: 1.07.

With B18, the enrichment score was inactive: 0.873.

As for B19, the enrichment score was inactive: 0.714.

In another assay the target is SHP2 N-SH2 domain T42A. Described as above. The conditions noted are these: peptide library: pTyr-Var.
As for B1, the enrichment score was inactive: 0.555.

Regarding B2, the enrichment score was inactive: 1.58.

As to B3, the enrichment score is inactive: 2.07.

Regarding B4, the enrichment score is inactive: 1.45.

As for B5, the enrichment score is inactive: 0.959.

B6: the enrichment score is inactive: 0.157.

As for B7, the enrichment score was inactive: 0.739.

As for B8, the enrichment score was inactive: 0.533.

On to B9, for which the enrichment score was inactive: 0.903.

On to B10, for which the enrichment score was inactive: 0.565.

As for B11, the enrichment score was inactive: 1.43.

As for B12, the enrichment score was inactive: 0.529.

Take B13: the enrichment score was inactive: 0.474.

For the molecule B14, the enrichment score was inactive: 2.47.

For B15, the enrichment score is inactive: 1.25.

On to B16, for which the enrichment score was inactive: 1.31.

Consider B17, for which the enrichment score was inactive: 0.764.

B18: the enrichment score is inactive: 0.713.

Consider B19, for which the enrichment score is inactive: 0.655.

The target in a further assay is SHP2 N-SH2 domain T52S. The description is as above. The conditions noted are these: peptide library: pTyr-Var.
B1: the enrichment score was inactive: 0.617.

For B2, the enrichment score is inactive: 1.78.

For B3, the enrichment score is inactive: 1.89.

As to B4, the enrichment score is inactive: 1.41.

For B5, the enrichment score was inactive: 0.743.

With B6, the enrichment score is inactive: 0.232.

Consider B7, for which the enrichment score is inactive: 0.78.

Take B8: the enrichment score was inactive: 0.649.

On to B9, for which the enrichment score is inactive: 0.851.

As to B10, the enrichment score was inactive: 0.738.

Regarding B11, the enrichment score is inactive: 1.53.

For B12, the enrichment score is inactive: 0.465.

In the case of B13, the enrichment score is inactive: 0.462.

Take B14: the enrichment score was inactive: 1.09.

With B15, the enrichment score was inactive: 0.662.

Turning to B16, the enrichment score is inactive: 1.04.

Consider B17, for which the enrichment score was inactive: 0.859.

Turning to B18, the enrichment score is inactive: 0.996.

On to B19, for which the enrichment score is inactive: 0.792.

The next assay addresses SHP2 N-SH2 domain wild-type. The description is as above. The conditions noted are these: peptide library: pTyr-Var.
As to B1, the enrichment score is inactive: 0.882.

In the case of B2, the enrichment score was inactive: 1.44.

B3: the enrichment score is inactive: 1.16.

Take B4: the enrichment score is inactive: 1.29.

Turning to B5, the enrichment score was inactive: 1.02.

In the case of B6, the enrichment score is inactive: 0.289.

With B7, the enrichment score is inactive: 0.91.

As for B8, the enrichment score is inactive: 0.476.

For the molecule B9, the enrichment score was inactive: 0.56.

B10: the enrichment score is inactive: 0.735.

Take B11: the enrichment score was inactive: 1.32.

In the case of B12, the enrichment score was inactive: 0.483.

For the molecule B13, the enrichment score was inactive: 0.685.

Turning to B14, the enrichment score is inactive: 1.17.

For the molecule B15, the enrichment score was inactive: 0.95.

Consider B16, for which the enrichment score was inactive: 1.02.

For B17, the enrichment score was inactive: 0.757.

With B18, the enrichment score is inactive: 0.626.

With B19, the enrichment score is inactive: 0.95.

The values above are taken from the supplement of paper PMC10369915.
